The values that follow come from the antibiotic and cytotoxicity screens of Wong et al. (2023).

Each structure is given as a SMILES string. Some of the results follow.

This experiment concerns HSkMC (human skeletal muscle cells). The experiment can be described thus: cytotoxicity call (relative viability < 0.9). The note with it: 10 µM.
Consider `COc1ccc(CN(C)C[C@@H]2Oc3c(NC(=O)c4ccc(-c5nccs5)cc4)cccc3C(=O)N([C@@H](C)CO)C[C@H]2C)cc1`, for which the cytotoxicity call was “inactive”. `CO[C@@H]1CN(C)C(=O)c2cc(NS(C)(=O)=O)ccc2OC[C@@H](C)N(S(=O)(=O)CC(F)(F)F)C[C@H]1C`: the cytotoxicity call was “inactive”. In the case of `C[C@@H]1CN([C@H](C)CO)C(=O)CCCn2cc(nn2)CO[C@H]1CN(C)C(=O)Nc1ccc(N2CCN(C)CC2)cc1`, the cytotoxicity call is “inactive”. For the molecule `C[C@@H]1CN([C@@H](C)CO)C(=O)Cc2cc(NC(=O)CCCCCC(=O)Nc3ccccc3N)ccc2O[C@@H]1CN(C)C(=O)Nc1ccccc1`, the cytotoxicity call was “inactive”. In the case of `CC(C)C[C@H](NC(=O)[C@H](CCCCN)NC(=O)[C@H](CCCNC(=N)N)NC(=O)[C@H](C)NC(=O)[C@H](CO)NC(=O)[C@H](CCCCN)NC(=O)[C@H](CCCNC(=N)N)NC(=O)[C@H](C)NC(=O)CNC(=O)[C@@H](NC(=O)[C@H](Cc1ccccc1)NC(=O)CNC(=O)CNC(=O)[C@@H](N)Cc1ccccc1)[C@@H](C)O)C(=O)N[C@@H](C)C(=O)N[C@@H](CC(N)=O)C(=O)N[C@@H](CCC(N)=O)C(=O)O`, the cytotoxicity call was “inactive”.

Consider `CN1CCN(C(=O)C[C@H]2C[C@@H]3c4cc(NC(=O)c5ccc6c(c5)OCO6)ccc4O[C@@H]3[C@@H](CO)O2)CC1`, for which the cytotoxicity call was “inactive”. Take `CCC[C@@H](O)C#Cc1cnc2c(c1)C(=O)N([C@H](C)CO)C[C@H](C)[C@H](CN(C)C(=O)Nc1ccc3c(c1)OCO3)O2`: the cytotoxicity call was “inactive”.

As to `C[C@@H]1CN([C@H](C)CO)C(=O)c2cc(NC(=O)Nc3ccccc3)ccc2O[C@@H](C)CCCCO[C@@H]1CN(C)S(=O)(=O)c1ccccc1`, the cytotoxicity call is “inactive”. With `CCCNC(=O)Cc1nnc[nH]1`, the cytotoxicity call was “inactive”. Consider `CC(C)NC(=O)Nc1ccc2c(c1)C(=O)N([C@H](C)CO)C[C@@H](C)[C@H](CN(C)Cc1ccc(C(=O)O)cc1)O2`, for which the cytotoxicity call is “inactive”.

With `COc1ccc(CN(C)C[C@H]2OCCCC[C@H](C)Oc3ccc(NC(=O)NC4CCCCC4)cc3C(=O)N([C@@H](C)CO)C[C@H]2C)cc1`, the cytotoxicity call is “inactive”. For the molecule `C[C@H]1CN([C@@H](C)CO)C(=O)c2cc(NC(=O)Nc3ccc(C(F)(F)F)cc3)ccc2O[C@@H]1CN(C)C(=O)Nc1ccc2c(c1)OCO2`, the cytotoxicity call was “inactive”. As for `Cc1noc(C)c1NC(=O)N(C)C[C@@H]1Oc2ccc(NS(=O)(=O)c3cn(C)cn3)cc2CC(=O)N([C@H](C)CO)C[C@H]1C`, the cytotoxicity call is “inactive”. On to `CNC[C@@H]1OCCCC[C@@H](C)Oc2ccc(NS(=O)(=O)c3cn(C)cn3)cc2C(=O)N([C@H](C)CO)C[C@H]1C`, for which the cytotoxicity call was “inactive”. As for `C[C@@H]1CN([C@H](C)CO)C(=O)c2cc(NC(=O)C3CC3)ccc2O[C@@H]1CN(C)Cc1ccc(-c2ccccc2)cc1`, the entry is “inactive”; as for `C[C@@H]1CN([C@@H](C)CO)S(=O)(=O)c2ccc(C#Cc3ccncc3)cc2O[C@H]1CN(C)C(=O)Nc1ccc2c(c1)OCO2`, “active”. For `COc1ccc(NC(=O)Nc2ccc3c(c2)C(=O)N([C@H](C)CO)C[C@@H](C)[C@@H](CN(C)Cc2ccc4c(c2)OCO4)OCCCC[C@@H](C)O3)cc1` the value was “inactive”; for `Cc1noc(C)c1NC(=O)N(C)C[C@@H]1Oc2ccc(NC(=O)NC(C)C)cc2CC(=O)N([C@@H](C)CO)C[C@H]1C`, “inactive”; for `C[C@H]1CN([C@@H](C)CO)C(=O)c2cc(-c3cccc(C(=O)N(C)C)c3)cnc2O[C@H]1CN(C)S(=O)(=O)c1ccccc1`, “inactive”. Consider `CC[C@@H]1/C=C(\C)C[C@H](C)C[C@H](OC)[C@H]2O[C@@](O)(C(=O)C(=O)N3CCCC[C@H]3C(=O)O[C@H](/C(C)=C/[C@@H]3CC[C@H](Cl)[C@H](OC)C3)[C@H](C)[C@@H](O)CC1=O)[C@H](C)C[C@@H]2OC`, for which the cytotoxicity call was “inactive”. As for `CCCC(=O)Nc1ccc2c(c1)C(=O)N(C)C[C@@H](OC)[C@H](C)CN(C(=O)CN1CCOCC1)[C@H](C)CO2`, the entry is “inactive”; as for `C[C@@H]1CN([C@@H](C)CO)C(=O)Cc2cc(NS(=O)(=O)c3cccs3)ccc2O[C@H]1CN(C)C(=O)Nc1cccc2ccccc12`, “inactive”. Regarding `C[C@H](O)C#Cc1cnc2c(c1)C(=O)N([C@H](C)CO)C[C@@H](C)[C@@H](CN(C)C(=O)CN1CCOCC1)O2`, the cytotoxicity call was “inactive”. As for `COCCOC(=O)N1C(=O)[C@@]2(c3cc(C#CC4=CCCCC4)ccc31)[C@H](c1ccccc1OCCO)N1[C@H](c3ccccc3)[C@H](c3ccccc3)OC(=O)[C@H]1[C@@H]2C(=O)NC[C@H](O)c1ccccc1`, the entry is “inactive”; as for `C[C@H]1CN([C@@H](C)CO)C(=O)c2cccc(NC(=O)c3ccc(-c4nccs4)cc3)c2O[C@H]1CN(C)Cc1ccc(C(F)(F)F)cc1`, “inactive”; as for `CCC(=O)N1C[C@]2(CN(C2)C(=O)CN2CCOCC2)c2c([nH]c3cc(ccc23)OC)[C@@H]1CO`, “inactive”. For `Cc1ccccc1S(=O)(=O)N1C[C@H](O)COC[C@H]2O[C@H](CC(=O)N3CCN(C)CC3)CC[C@@H]21`, the cytotoxicity call is “inactive”.

On to `Cc1noc(C)c1S(=O)(=O)Nc1ccc2c(c1)C(=O)N([C@@H](C)CO)C[C@@H](C)[C@@H](CN(C)Cc1ccc(C(F)(F)F)cc1)OCCCC[C@@H](C)O2`, for which the cytotoxicity call is “inactive”. For `CN(C)CCC(c1ccc(Br)cc1)c1ccccn1.O=C(O)C=CC(=O)O` (stereo not given) the value was “inactive”. As to `Cc1ccc(S(=O)(=O)N(C)C[C@H]2Oc3ncc(-c4ccncc4)cc3C(=O)N([C@H](C)CO)C[C@H]2C)cc1`, the cytotoxicity call was “inactive”. For `CO[C@@H]1CN(C)C(=O)c2cc(NC(=O)c3ccc(F)cc3)ccc2OC[C@H](C)N(C(=O)CN(C)C)C[C@@H]1C` the value was “inactive”. `CNC(=O)C[C@H]1CC[C@@H]2[C@H](COC[C@@H](O)CN2C(=O)c2ccccn2)O1`: the cytotoxicity call was “inactive”. On to `COc1ccc(NC(=O)N(C)C[C@@H]2OCCCC[C@H](C)Oc3ccc(NC(=O)CCC(F)(F)F)cc3C(=O)N([C@@H](C)CO)C[C@@H]2C)cc1`, for which the cytotoxicity call was “inactive”. As for `CC(C)[C@@H](CC[C@@H](C)[C@H]1CC[C@H]2[C@@H]3[C@H](O)C[C@H]4C[C@@H](NCCCNCCCCN)CC[C@]4(C)[C@H]3CC[C@]12C)OS(=O)(=O)O`, the entry is “active”; as for `COCCN1C[C@]23CN(C(=O)COC)C[C@@H](C[C@H]2S1(=O)=O)O3`, “inactive”. In the case of `C[C@H]1CCCCO[C@H](CN(C)C(=O)Nc2cccc3ccccc23)[C@@H](C)CN([C@@H](C)CO)C(=O)c2cc(NS(=O)(=O)c3ccc(Cl)cc3)ccc2O1`, the cytotoxicity call was “inactive”.

With `C[C@@H]1CN([C@@H](C)CO)C(=O)Cc2cc(NC(=O)Cn3cnnn3)ccc2O[C@@H]1CN(C)S(=O)(=O)c1ccccc1`, the cytotoxicity call was “inactive”. As to `Cn1cnc(S(=O)(=O)N[C@H]2CC[C@@H](CC(=O)NCC3CC3)O[C@H]2CO)c1`, the cytotoxicity call is “inactive”. As for `O=C(O)/C=C\C(=O)NCc1cccnc1`, the entry is “inactive”; as for `C[C@@H]1CCCCO[C@@H](CN(C)C(=O)CCC(F)(F)F)[C@H](C)CN([C@@H](C)CO)C(=O)c2cc(NC(=O)NC3CCCCC3)ccc2O1`, “inactive”.
